# Measurements published in PubChem BioAssay AID1240 (Sanford-Burnham Center for Chemical Genomics, 2008).
# In all, about 50,000 compounds went through this assay and about 800 (1.6%) showed an effect of 50% or more. The list shows a part of the results.
# Molecular target: Bcl-2-like protein 10 (Homo sapiens) (UniProt Q9HD36)
# Test: TR3 peptide-Bcl-B binding displacers, biochemical primary FP assay, phenotype converters (AID 1240);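 also: 0% = Bcl-B with tracer peptide and DMSO and 100% = tracer peptide lacking Bcl-B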
# Settings: GST-Bcl-B / FITC-TR3 peptide fluorescence polarization; stronger effect = higher value; compound at 3.75 mg/L
# Chain of UniProt Q9HD36 (Q9HD36 whole entry, looked up): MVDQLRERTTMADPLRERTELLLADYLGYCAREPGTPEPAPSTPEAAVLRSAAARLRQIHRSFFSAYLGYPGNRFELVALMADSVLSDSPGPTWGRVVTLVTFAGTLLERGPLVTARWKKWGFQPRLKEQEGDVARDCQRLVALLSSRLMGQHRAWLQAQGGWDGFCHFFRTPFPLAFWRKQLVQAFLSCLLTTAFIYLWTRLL
row,SMILES,displacement [%]
1,COc1cc(/C=C2/C(=O)NN(c3ccc(Cl)cc3)C2=O)ccc1O,0.9
2,O=C1c2ccccc2C(=O)N1CSc1nc(-c2ccccc2)cc(-c2ccccc2)n1,-1.9
3,Cc1ccccc1C(=O)NN1C(=O)/C(=C/c2cccc(O)c2)SC1=S,-16.7
4,CN(C)CCC(=O)c1cccs1,4.3
5,O=C(NN1C(=O)C2C3C=CC(C4CC34)C2C1=O)c1ccc(Cl)cc1Cl (configuration not stated),1.6
6,O=C(COc1ccccc1[N+](=O)[O-])Nc1ccc(I)cc1Cl,-0.1
7,CN(C)c1ccc(/C=N/n2cnnc2SCc2ccccc2)cc1,2.2
8,O=C(CC1Sc2ccc(C(F)(F)F)cc2NC1=O)Nc1ccc([N+](=O)[O-])cc1 (configuration not stated),0.4
9,Cc1ccc(N2C(=O)NC(=O)/C(=C\c3ccc(N4CCOCC4)o3)C2=O)cc1,-5.9
10,CCOc1ccc(NC(=O)/C(=C\c2ccccc2Cl)NC(=O)c2ccc(C)cc2)cc1,-1.2
11,COc1ccccc1N(CC(=O)NCCOc1ccc(Cl)cc1)S(=O)(=O)c1ccccc1,-6.4
12,O=C(COc1ccc(Br)cc1)NNC(=O)c1ccco1,15.3
13,COc1ccccc1OCC(=O)Nc1ccc(C(=O)O)cc1,1
14,C/C(=N\N=C1\NC(=O)C(CC(=O)Nc2ccccc2)S1)C(C)C (configuration not stated),-26.8
15,CC(C)C(=O)N1c2ccccc2NC2=C(C(=O)CC(C)(C)C2)C1c1cccnc1 (configuration not stated),-4.7
16,CC(=O)c1cccc(NC(=O)c2cccc(OCc3ccccc3)c2)c1,-9.5
17,COc1ccc(S(=O)(=O)N(CC(=O)NCc2ccc(Cl)cc2)Cc2ccccc2)cc1,7.8
18,CC1(C)CC(=O)C=C(NNC(=O)Cc2ccccc2)C1,5.8
19,O=C(Oc1ccc2oc(=O)sc2c1)c1ccccc1Br,7.5
20,O=C(c1cc(I)ccc1Cl)N1CCN(c2ccc([N+](=O)[O-])cc2)CC1,16.6
21,COc1cc(/C=C2/C(=O)NC(=O)N(c3cccc(C)c3)C2=O)ccc1OCC(=O)O,-14.8
22,CC(C)(C)NC(=O)c1ccccc1N(Cc1ccccc1)S(=O)(=O)c1ccccc1,-1.7
23,CNC(=O)C1CC(=O)N(c2ccc(F)cc2)C1 (configuration not stated),3.4
24,Cc1cc(Br)cc(C)c1NC(=O)c1cccnc1,2.1

row,SMILES,displacement [%]
1,COc1ccc(NC(=O)Nc2nnc(-c3ccc(F)cc3)s2)cc1,3.4
2,CC(C)OC(=O)c1ccccc1OC(=O)c1sc2ccccc2c1Cl,-13.2
3,CCOC(=O)C(=Cc1cc(OC)c(O)c([N+](=O)[O-])c1)C(=O)OCC,14.2
4,Cc1ccc(OCC(=O)Nc2cccc(-c3nc4ncccc4o3)c2)cc1C,-5.9
5,CCOC(=O)c1cc(-c2ccccc2)oc1CN1CCOCC1,14.7
6,COc1cc(OC)cc(C(=O)Nc2cccc(C(C)=O)c2)c1,-5.3
7,CCc1ccccc1NC(=O)c1ccncc1,-2.1
8,CC(=O)Nc1cc(-c2ccc(C)cc2)nn1Cc1ccccc1,1.7
9,O=C(c1cccc(F)c1)N1CCN(Cc2cccc(Oc3ccccc3)c2)CC1,-8.1
10,COc1ccc(C(=O)OCCNC(=O)c2ccc[n+](C)c2)cc1,-16
11,O=c1/c(=C\c2ccccc2OCc2cccc3ccccc23)sc2nc3ccccc3n12,104
12,Cc1ccccc1OCC(=O)Nc1ccc(I)cc1,-1.7
13,O=c1[nH]c(/C=C/c2cc([N+](=O)[O-])ccc2O)c([N+](=O)[O-])c(=O)[nH]1,9.1
14,CC1=NNC(=O)C1CC(=O)N/N=C/c1ccccc1 (configuration not stated),-8.1
15,O=C(c1ccc(F)cc1)N1CCN(CCCc2ccccc2)CC1,10
16,O=S(=O)(c1ccccc1)N1CCN(C2CCC(c3ccccc3)CC2)CC1 (configuration not stated),5.6
17,O=C(CC1S/C(=N\N=C\c2ccccc2)NC1=O)Nc1ccccc1F (configuration not stated),8.3
18,COc1cccc(C=C2C(=O)NC(=S)NC2=O)c1OC,1.4
19,COc1cc(/C=N/N2C(=O)C3C4C=CC(C4)C3C2=O)cc(I)c1OC (configuration not stated),8.9
20,Cc1ncc(-c2ccc(Br)cc2)cn1,-4
21,CCOc1ccccc1NC(=O)c1ccc(N(C)C)cc1,14.9
22,COc1ccc(OC)c(N=Cc2c(O)n(-c3ccccc3Cl)c(=O)[nH]c2=O)c1,98.7
23,CC(=O)c1cccc(N2C(=O)C3C4C=CC(C5CC45)C3C2=O)c1 (configuration not stated),8.9
24,CCOC(=O)c1[nH]c(=O)c2ccccc2c1O,-12.2

row,SMILES,displacement [%]
1,COc1ccc(CN2CCN(Cc3ccncc3)CC2)c(OC)c1,-16.7
2,CCCOc1ccc(-c2ccc(-c3noc(CC)n3)cc2)cc1,-10.4
3,CCOc1ccccc1/C=C1\C(=O)N(CCOC)C(C)=C1C(=O)OC,-1.3
4,CCOc1ccccc1C(=O)Nc1sc2c(c1C#N)CCCC2,-4.6
5,COc1ccc2c(c1)c(/C=C/c1nc3ccccc3c(=O)n1-c1ccccc1OC)c(C)n2C,-1
6,COc1ccc(C(=O)Nc2cc(Cl)ccc2Cl)cc1NC(=O)COc1ccc(F)cc1,-3.5
7,CCC(=O)Oc1ccc2c(C)cc(=O)oc2c1C(=O)c1ccccc1,5.3
8,NNC(=O)C1c2ccccc2Oc2ccccc21,0
9,O=C(O)CC(NC(=O)c1ccco1)c1ccccc1 (configuration not stated),-0.2
10,CC(=O)C(C)Oc1ccc2ccc(=O)oc2c1 (configuration not stated),11.4
11,COC(=O)c1c(NC(=O)c2cccc(F)c2)sc2c1CCCCC2,-8.5
12,CCOC(=O)C1=C(C)NC(C)=C(C(=O)OC)C1c1ccco1 (configuration not stated),-0.1
13,O=C1CC(NC2CCCCC2)C(=O)N1c1ccccc1 (configuration not stated),9.4
14,COc1cc(N2C(=O)NC(=O)/C(=C\c3cc(Br)c(O)c(OC)c3)C2=O)c(OC)cc1Cl,9.5
15,N/C(=N\OC(=O)c1ccc(I)cc1)c1ccc(Cl)cc1,2.8
16,COc1ccc(C2C3=C(CC(C)(C)CC3=O)NC3=C2C(=O)CC(C)(C)C3)cc1Br,11.7
17,Cc1c(N2C(=O)S/C(=C\c3ccccc3)C2=O)c(=O)n(-c2ccccc2)n1C,1.7
18,COc1cc(CN2CCN(Cc3ccccn3)CC2)cc(OC)c1OC,-5.1
19,CC(=O)Nc1ccc(Cl)c(C(N)=O)c1,-7.9
20,C=CCN(CC=C)C(=O)c1ccc(OC)cc1,-0.4
21,Cc1cccc(C(C)C)c1NC(=O)C1COc2ccccc2O1 (configuration not stated),-8.3
22,O=C1CSC2(N1)C1CC3CC(C1)CC2C3 (configuration not stated),-1.5
23,COc1cc(C(=O)c2ccccc2)c(OC)cc1C(=O)NC1CC(C)(C)NC(C)(C)C1,-11.2
24,CCc1ccc(NC(=O)/C(C#N)=C\c2ccc(I)o2)cc1,-8.1
